Some of the results follow. The energies were worked out here from pooled read counts, against the library average; single values are noisy.

In this assay the target is T1, Pho4 (S. cerevisiae) (UniProt P07270).
T1 sequence: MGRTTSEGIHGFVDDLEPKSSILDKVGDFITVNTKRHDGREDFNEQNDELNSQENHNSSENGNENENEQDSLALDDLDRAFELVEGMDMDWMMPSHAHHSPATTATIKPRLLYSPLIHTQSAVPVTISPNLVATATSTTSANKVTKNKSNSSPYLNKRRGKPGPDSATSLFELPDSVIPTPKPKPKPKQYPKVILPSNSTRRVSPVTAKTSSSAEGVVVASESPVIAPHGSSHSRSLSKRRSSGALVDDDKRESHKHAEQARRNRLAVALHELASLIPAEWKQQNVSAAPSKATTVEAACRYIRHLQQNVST
As to the kind of experiment: relative binding free energy (BET-seq); higher = weaker binding. The note with it: reference: library average.
In the case of AACGGCACGTGTGGGA, the “relative binding free energy” value was -0.04 kcal/mol.
On to TCGAACACGTGCGGGG, for which the “relative binding free energy” value is 0.06 kcal/mol.
Regarding GGGTTCACGTGCTGGA, the “relative binding free energy” value came to 0.35 kcal/mol.
The value for GTCTTCACGTGTAATT was 0.22 kcal/mol; that for TTGACCACGTGGGTGC was -0.18 kcal/mol.
Turning to TGCGGCACGTGCGTGA, the “relative binding free energy” value is -0.18 kcal/mol.
GCTGACACGTGGAGGT: the “relative binding free energy” value was -0.03 kcal/mol.
As to TGTTGCACGTGAAGCG, the “relative binding free energy” value was found to be 0.29 kcal/mol.
Take TAGTGCACGTGAGATT: the “relative binding free energy” value is 0.24 kcal/mol.
For CGGTACACGTGGTATT, the “relative binding free energy” value was determined as 0.12 kcal/mol.
With GGAGCCACGTGGTGAG the figure was -0.06 kcal/mol.
With GATTGCACGTGATTAG, the “relative binding free energy” value was found to be 0.25 kcal/mol.
The value for GAAGCCACGTGGTGTA was -0.02 kcal/mol; that for TTGCTCACGTGGATGA was 0.38 kcal/mol; that for ATCTCCACGTGTGTGG was 0.08 kcal/mol.
With AGGTACACGTGAGGGA the figure was 0.3 kcal/mol; with TTGGCCACGTGGTAAA, 0.01 kcal/mol; with ATTTCCACGTGTTGGA, 0.04 kcal/mol.
Take AGGATCACGTGGGCGG: the “relative binding free energy” value was 0.02 kcal/mol.
With CTGTACACGTGGGGTA the figure was -0.2 kcal/mol; with TAAAGCACGTGTAAGT, 0.02 kcal/mol.
Turning to ATGTGCACGTGTTACT, the “relative binding free energy” value amounted to 0.05 kcal/mol.
Consider GGTTGCACGTGGCACG, for which the “relative binding free energy” value is -0.07 kcal/mol.
As for TGGGTCACGTGACGTA, the “relative binding free energy” value was 0.23 kcal/mol.
The value for AGGTTCACGTGTGTTC was 0.26 kcal/mol; that for CTTGCCACGTGTTGGG was -0.07 kcal/mol.
Consider TTTTTCACGTGGCAGC, for which the “relative binding free energy” value was 0.33 kcal/mol.
With GGGTACACGTGTGACT the figure was 0.31 kcal/mol; with ATTTGCACGTGGCAGT, -0.07 kcal/mol.
GGCATCACGTGTGGAG: the “relative binding free energy” value is 0.21 kcal/mol.
With GGGGCCACGTGTTTAT the figure was -0.01 kcal/mol.
With TTTTCCACGTGGCGGT the figure was 0.08 kcal/mol.
TGGTGCACGTGGTGAC: the “relative binding free energy” value was -0.05 kcal/mol.
On to ATCTCCACGTGGGTTG, for which the “relative binding free energy” value is -0.04 kcal/mol.
With TTATTCACGTGATGGT the figure was 0.35 kcal/mol.
With TAGTGCACGTGGATTT the figure was 0.02 kcal/mol.
As to TAATGCACGTGGTCAG, the “relative binding free energy” value is -0.2 kcal/mol.
Consider AAAGACACGTGGTTAG, for which the “relative binding free energy” value was -0.02 kcal/mol.
With TTAGGCACGTGTATAG the figure was -0.09 kcal/mol.
In the case of CGAGGCACGTGATTTA, the “relative binding free energy” value amounted to 0.1 kcal/mol.
On to GGGGGCACGTGCAGAG, for which the “relative binding free energy” value is -0.19 kcal/mol.
The value for ATGATCACGTGATTGT was 0.18 kcal/mol; that for CTGCGCACGTGGTGTT was -0.31 kcal/mol.
The value for TTTTTCACGTGAAGGT was 0.39 kcal/mol.
With GTTGACACGTGGTCTT the figure was -0.08 kcal/mol; with TATTGCACGTGCAGTA, -0.05 kcal/mol.
AGGTGCACGTGAGTAT: the “relative binding free energy” value came out at 0.21 kcal/mol.
Turning to TAGACCACGTGGGGTG, the “relative binding free energy” value is -0.29 kcal/mol.
For the sequence GGCTGCACGTGGGAGT, the “relative binding free energy” value was -0.12 kcal/mol.
GGGTACACGTGCTGGG: the “relative binding free energy” value came out at 0.1 kcal/mol.
The value for TGAGTCACGTGTTCGA was 0.13 kcal/mol.
With GTATTCACGTGGATTT the figure was 0.22 kcal/mol; with ATAGTCACGTGTAGAG, 0.13 kcal/mol.
Consider GCTTGCACGTGTCTGG, for which the “relative binding free energy” value amounted to 0.05 kcal/mol.
With GAAATCACGTGTGTGA the figure was 0.31 kcal/mol; with CTGATCACGTGAAGGG, 0.37 kcal/mol.
With GATCGCACGTGGGTTT the figure was -0.16 kcal/mol.
Take GTAAGCACGTGGTTTG: the “relative binding free energy” value was -0.21 kcal/mol.
Consider ATATTCACGTGGGCGT, for which the “relative binding free energy” value is 0.12 kcal/mol.
Turning to AGGGTCACGTGGCGGA, the “relative binding free energy” value came to 0.1 kcal/mol.
The value for ATCTTCACGTGGTGGT was 0.19 kcal/mol; that for ATATACACGTGTTCGT was -0.1 kcal/mol; that for ATGCGCACGTGGTAAG was -0.21 kcal/mol.
Take ATGAGCACGTGGGAAG: the “relative binding free energy” value was -0.13 kcal/mol.
With ATGGCCACGTGACGGT the figure was 0.07 kcal/mol; with ACGGTCACGTGGAAGT, 0.09 kcal/mol.
With GTGTCCACGTGCTGGT the figure was -0.11 kcal/mol; with ATTGGCACGTGTCTGC, -0.06 kcal/mol.
With TGGGACACGTGATGTG the figure was 0.17 kcal/mol; with TCGGGCACGTGTCTGG, -0.06 kcal/mol.
On to TCGGACACGTGGTGAT, for which the “relative binding free energy” value amounted to 0.04 kcal/mol.
Consider TCGCGCACGTGGTATG, for which the “relative binding free energy” value was -0.14 kcal/mol.
With TGGATCACGTGGGCGT, the “relative binding free energy” value was -0.02 kcal/mol.
The value for TAATTCACGTGGGATT was 0.24 kcal/mol; that for TTTACCACGTGGTAGT was -0.08 kcal/mol.
Take ATATTCACGTGTGGAG: the “relative binding free energy” value was found to be 0.13 kcal/mol.
For GGGATCACGTGGAGGA, the “relative binding free energy” value turned out to be 0.14 kcal/mol.
With AGCGGCACGTGATGGA the figure was 0.01 kcal/mol; with CTTTGCACGTGTGGAT, -0.02 kcal/mol; with TTGTTCACGTGGCTAA, 0.38 kcal/mol.
With TGCTGCACGTGAGGAG the figure was 0.27 kcal/mol.
In the case of GGTCGCACGTGGGCGG, the “relative binding free energy” value was -0.18 kcal/mol.
For AGAACCACGTGGTGTG, the “relative binding free energy” value was -0.11 kcal/mol.
The value for GAATTCACGTGTGTCT was 0.36 kcal/mol.
For the sequence ATTTTCACGTGTCTCG, the “relative binding free energy” value amounted to 0.26 kcal/mol.
With AATATCACGTGGTACT the figure was 0.15 kcal/mol; with TGGCACACGTGGTGTT, -0.12 kcal/mol.
With ATGGGCACGTGCGAGG the figure was -0.12 kcal/mol.
The value for GCGTGCACGTGGTAGG was -0.1 kcal/mol.
As for GTTTTCACGTGCTTAT, the “relative binding free energy” value worked out at 0.16 kcal/mol.
With CTTGACACGTGCTTGT the figure was -0.07 kcal/mol; with GAGTTCACGTGGCCTG, 0.31 kcal/mol; with ATTGACACGTGATAAG, 0.18 kcal/mol.
The value for GTCGGCACGTGGGTTA was -0.11 kcal/mol; that for TTCGCCACGTGATGGG was -0.05 kcal/mol; that for AAAGGCACGTGCAGGT was -0.21 kcal/mol.
In the case of TGTGTCACGTGAATAG, the “relative binding free energy” value amounted to 0.34 kcal/mol.
Consider CGCGGCACGTGTGTAG, for which the “relative binding free energy” value is -0.09 kcal/mol.
The value for TTTGTCACGTGTACTT was 0.14 kcal/mol; that for TTGGGCACGTGTGGAT was -0.01 kcal/mol; that for CAGGACACGTGGGGGT was -0.02 kcal/mol.
With TATGGCACGTGTCGAT the figure was -0.1 kcal/mol.
With AGTGCCACGTGCGTAT the figure was -0.09 kcal/mol; with TGTTGCACGTGCAGCT, -0.07 kcal/mol.
For AACGGCACGTGGGGGC, the “relative binding free energy” value is -0.16 kcal/mol.
The value for GGAGGCACGTGGTGGC was -0.08 kcal/mol.
The value for AAAGGCACGTGAAGGG was 0.08 kcal/mol.
In the case of CTAGGCACGTGCGGGA, the “relative binding free energy” value was -0.12 kcal/mol.
The value for AGAATCACGTGCTGGG was 0.17 kcal/mol; that for TGGTTCACGTGTTGTC was 0.28 kcal/mol; that for TAGCTCACGTGTGATT was 0.36 kcal/mol.
With TTGGTCACGTGCTTTG, the “relative binding free energy” value was found to be 0.13 kcal/mol.
With GTGGTCACGTGGGGTA the figure was -0.07 kcal/mol; with CATTTCACGTGGTAGG, 0.07 kcal/mol; with AGTGGCACGTGCCGGT, -0.28 kcal/mol.
Take GGAATCACGTGTGTTT: the “relative binding free energy” value is 0.28 kcal/mol.
As for GTTCTCACGTGAGGAT, the “relative binding free energy” value worked out at 0.46 kcal/mol.
As to TAAGTCACGTGGTGAA, the “relative binding free energy” value is 0.11 kcal/mol.
With TTGCTCACGTGGTTCT the figure was 0.13 kcal/mol.
As for GTGAACACGTGCGCGG, the “relative binding free energy” value was -0.01 kcal/mol.
The value for CGGGACACGTGATTGG was 0.15 kcal/mol; that for GCGTTCACGTGTCAGG was 0.34 kcal/mol; that for TGCCACACGTGAGTGT was 0.33 kcal/mol.
With TTTATCACGTGCAAGT the figure was 0.11 kcal/mol; with TGGGCCACGTGGGTAT, -0.22 kcal/mol; with GGCGGCACGTGAACGG, 0.23 kcal/mol.
With GGATGCACGTGTACAG the figure was 0.05 kcal/mol; with TTTTACACGTGCTGTA, 0.05 kcal/mol; with AAGGCCACGTGGTATT, -0.05 kcal/mol.
For the sequence TCGGTCACGTGTGGCG, the “relative binding free energy” value stood at 0.04 kcal/mol.
On to ATGCACACGTGGGTGA, for which the “relative binding free energy” value was -0.07 kcal/mol.
Consider ATATTCACGTGTGAGA, for which the “relative binding free energy” value came to 0.23 kcal/mol.
TGTGACACGTGGGCTT: the “relative binding free energy” value was -0.12 kcal/mol.
On to AGTGTCACGTGAGTTG, for which the “relative binding free energy” value came out at 0.28 kcal/mol.
As to TTTATCACGTGACATT, the “relative binding free energy” value is 0.19 kcal/mol.
With GTTACCACGTGTATTT the figure was 0.13 kcal/mol; with TTTCTCACGTGGGCTG, 0.14 kcal/mol; with AGTTGCACGTGTCTCG, 0.08 kcal/mol.
With GTTAGCACGTGGAATG the figure was -0.08 kcal/mol; with TGTATCACGTGAAATT, 0.26 kcal/mol; with TCCGGCACGTGAAGGG, 0.18 kcal/mol.
For the sequence GATGGCACGTGGTTGC, the “relative binding free energy” value came out at 0.02 kcal/mol.
In the case of GTTTTCACGTGAGAAG, the “relative binding free energy” value was found to be 0.41 kcal/mol.
With AATGTCACGTGTTAGG the figure was 0.11 kcal/mol.
With AAGTTCACGTGTGAAG the figure was 0.2 kcal/mol.
The value for GTGTTCACGTGTTCGA was 0.31 kcal/mol.

The values above are taken from the BET-seq Pho4 binding data (Le et al. 2018).
